{"source": "patent US6448281B1", "about": "(Boehringer Ingelheim (Canada) Ltd., priority 2000, dated 2002)", "biological_target": "hepatitis C virus RNA dependent polymerase (NS5B) (Hepacivirus hominis (Hepatitis C virus), UniProt P26663)", "experiment": "Inhibition of NS5B RNA dependent RNA polymerase activity (SPA, UMP-[5,6 3H] incorporation)", "key": {"[1]": {"conditions": "IC50 μM, first compound table (printed title TABLE 10; Table 1)"}}, "data": [{"smiles": "CN(C)CCNC(=O)[C@H](Cc1c[nH]c2ccc(O)cc12)NC(=O)c1ccc2c(c1)nc(-c1ccoc1)n2C1CCCCC1", "note": "[Entry 13015, 1-Cyclohexyl-2-furan-3-yl-1H-benzimidazole-5-carboxylic Acid [(S)-1-(2-Dimethylamino-ethylcarbamoyl)-2-(5-hydroxy-1H-indol-3-yl)-ethyl]-amide]", "values": [{"measurement": "IC50", "setting": "IC50, Table 13", "value": "< 1", "unit": "µM"}]}, {"smiles": "COc1ccc(C(NC(=O)c2ccc3c(c2)nc(-c2ccoc2)n3C2CCCC2)C(=O)O)cc1OC", "note": "(centres unmarked) [Entry 3002]", "values": [{"measurement": "IC50", "setting": "IC50 μM, Table 3", "value": "< 1", "unit": "µM"}]}, {"smiles": "COC(=O)[C@H](Cc1cn(C)c2ccc(OCC(=O)O)cc12)NC(=O)c1ccc2c(c1)nc(-c1ccoc1)n2C1CCCCC1", "note": "[Entry 11017]", "values": [{"measurement": "IC50", "setting": "IC50, Table 11", "value": "< 1", "unit": "µM"}]}, {"smiles": "COC(=O)[C@H](Cc1c(C)[nH]c2ccc(OCC(=O)O)cc12)NC(=O)c1ccc2c(c1)nc(-c1ccoc1)n2C1CCCCC1", "note": "[Entry 11015]", "values": [{"measurement": "IC50", "setting": "IC50, Table 11", "value": "< 1", "unit": "µM"}]}, {"smiles": "O=C(O)/C=C/c1ccc(O[C@H]2CCN(C(=O)c3ccc4c(c3)nc(-c3ccoc3)n4C3CCCCC3)C2)cc1", "note": "[Entry 6004]", "values": [{"measurement": "IC50", "setting": "IC50 μM, Table 6", "value": "5 to 10", "unit": "µM"}]}, {"smiles": "O=C(O)c1ccc(CN2CCC(NC(=O)c3ccc4c(c3)nc(-c3ccoc3)n4C3CCCCC3)CC2)cc1", "note": "[Entry 1276]", "values": [{"measurement": "IC50", "setting": "[1]", "value": "10 to 25", "unit": "µM"}]}, {"smiles": "O=C(N[C@@H](Cc1cnc[nH]1)C(=O)O)c1ccc2c(c1)nc(-c1ccccn1)n2C1CCCCC1", "note": "[Entry 2025]", "values": [{"measurement": "IC50", "setting": "IC50 μM, Table 2", "value": "5 to 10", "unit": "µM"}]}, {"smiles": "Cc1nnsc1-c1nc2cc(C(=O)N[C@@H](Cc3c[nH]c4ccc(O)cc34)C(=O)O)ccc2n1C1CCCCC1", "note": "[Entry 2141]", "values": [{"measurement": "IC50", "setting": "IC50 μM, Table 2", "value": "< 1", "unit": "µM"}]}, {"smiles": "O=C(O)c1ccc2c(c1)nc(-c1ccccc1)n2C1CCCCC1", "note": "[Entry 7006]", "values": [{"measurement": "IC50", "setting": "IC50 μM, Table 7", "value": "10 to 25", "unit": "µM"}]}, {"smiles": "N#Cc1ccc(-c2nc3cc(C(=O)O)ccc3n2C2CCCCC2)cc1", "note": "[Entry 7002]", "values": [{"measurement": "IC50", "setting": "IC50 μM, Table 7", "value": "10 to 25", "unit": "µM"}]}, {"smiles": "Cc1cc(=O)oc2ccc(C[C@H](NC(=O)c3ccc4c(c3)nc(-c3ccoc3)n4C3CCCCC3)C(=O)O)cc12", "note": "[Entry 1126, (S)-2-{[1-(1-Cyclohexyl-2-furan-3-yl-1H-benzimidazol-5-yl)-methanoyl]-amino}-3-(4-methyl-2-oxo-2H-1-benzopyran-6-yl)-propionic Acid]", "values": [{"measurement": "IC50", "setting": "[1]", "value": "1 to 5", "unit": "µM"}]}, {"smiles": "O=C(N[C@@H](Cc1c[nH]c2ccc(O)cc12)c1cscn1)c1ccc2c(c1)nc(-c1ccccn1)n2C1CCCCC1", "note": "[Entry 15001]", "values": [{"measurement": "IC50", "setting": "IC50, Table 15", "value": "< 1", "unit": "µM"}]}, {"smiles": "NC(=O)c1ccc2[nH]cc(C[C@H](NC(=O)c3ccc4c(c3)nc(-c3ccoc3)n4C3CCCCC3)C(=O)O)c2c1", "note": "[Entry 11019, (S)-3-(5-carbamoyl-1H-indol-3-yl)-2-{[1-(1-cyclohexyl-2-furan-3-yl-1H-benzoimidazol-5-yl)-methanoyl]-amino}-propionic Acid]", "values": [{"measurement": "IC50", "setting": "IC50, Table 11", "value": "< 1", "unit": "µM"}]}, {"smiles": "COc1ccc(CCNC(=O)c2ccc3c(c2)nc(-c2ccc(O)cc2)n3C2CCCCC2)cc1OC", "note": "[Entry 2001]", "values": [{"measurement": "IC50", "setting": "IC50 μM, Table 2", "value": "10 to 25", "unit": "µM"}]}, {"smiles": "C[C@H](NC(=O)c1ccc2c(c1)nc(-c1ccoc1)n2C1CCCCC1)[C@@H](O)c1ccc(OCC(=O)O)cc1", "note": "[Entry 1119]", "values": [{"measurement": "IC50", "setting": "[1]", "value": "1 to 5", "unit": "µM"}]}, {"smiles": "O=C(O)c1cccc(CN2CCC(NC(=O)c3ccc4c(c3)nc(-c3ccoc3)n4C3CCCCC3)C2)c1", "note": "(centres unmarked) [Entry 1287]", "values": [{"measurement": "IC50", "setting": "[1]", "value": "1 to 5", "unit": "µM"}]}, {"smiles": "O=C(NCc1ccc(O)c(O)c1)c1ccc2c(c1)nc(-c1ccccn1)n2C1CCCCC1", "note": "[Entry 2073]", "values": [{"measurement": "IC50", "setting": "IC50 μM, Table 2", "value": "5 to 10", "unit": "µM"}]}, {"smiles": "O=C(N[C@@H](Cc1c[nH]c2ccc(O)cc12)C(=O)O)c1ccc2c(c1)nc(-c1ccc3ccccc3n1)n2C1CCCCC1", "note": "[Entry 2116]", "values": [{"measurement": "IC50", "setting": "IC50 μM, Table 2", "value": "5 to 10", "unit": "µM"}]}, {"smiles": "O=C(NC1CCCC(NC(=O)C2CCCCC2C(=O)O)C1)c1ccc2c(c1)nc(-c1ccoc1)n2C1CCCCC1", "note": "(centres unmarked) [Entry 1224]", "values": [{"measurement": "IC50", "setting": "[1]", "value": "10 to 25", "unit": "µM"}]}, {"smiles": "O=C(N[C@@H](Cc1c[nH]c2ccc(O)cc12)C(=O)O)c1ccc2c(c1)nc(/C=C/c1ccc([N+](=O)[O-])cc1)n2C1CCCCC1", "note": "[Entry 2097]", "values": [{"measurement": "IC50", "setting": "IC50 μM, Table 2", "value": "1 to 5", "unit": "µM"}]}, {"smiles": "CC(C)Oc1ccc(-c2nc3cc(C(=O)O)ccc3n2C2CCCCC2)cc1", "note": "[Entry 7016]", "values": [{"measurement": "IC50", "setting": "IC50 μM, Table 7", "value": "5 to 10", "unit": "µM"}]}, {"smiles": "O=C(N[C@@H](Cc1c[nH]c2ccc(O)cc12)C(=O)O)c1ccc2c(c1)nc(-c1ccccc1)n2C1CCCCC1", "note": "[Entry 2139]", "values": [{"measurement": "IC50", "setting": "IC50 μM, Table 2", "value": "< 1", "unit": "µM"}]}, {"smiles": "CC(C)(Oc1ccc(C[C@H](NC(=O)c2ccc3c(c2)nc(-c2ccoc2)n3C2CCCCC2)C(=O)O)cc1)C(=O)O", "note": "[Entry 16018]", "values": [{"measurement": "IC50", "setting": "IC50, Table 16", "value": "< 1", "unit": "µM"}]}, {"smiles": "O=C(N[C@@H](Cc1ccc(O)c(-c2nn[nH]n2)c1)C(=O)O)c1ccc2c(c1)nc(-c1ccoc1)n2C1CCCCC1", "note": "[Entry 16056, (S)-2-{[1-(1-Cyclohexyl-2-furan-3-yl-1H-benzimidazol-5-yl)-methanoyl]-amino}-3-[4-hydroxy-3-(2H-tetrazol-5-yl)-phenyl]-propionic Acid]", "values": [{"measurement": "IC50", "setting": "IC50, Table 16", "value": "< 1", "unit": "µM"}]}, {"smiles": "O=C(O)C(=O)Nc1ccc2[nH]cc(C[C@H](NC(=O)c3ccc4c(c3)nc(-c3ccoc3)n4C3CCCCC3)C(=O)O)c2c1", "note": "[Entry 11024, (S)-3-{5-[(1-Carboxy-methanoyl)-amino]-1H-indol-3-yl}-2-{[1-(1-cyclohexyl-2-furan-3-yl-1H-benzimidazol-5-yl)-methanoyl]-amino}-propionic Acid]", "values": [{"measurement": "IC50", "setting": "IC50, Table 11", "value": "< 1", "unit": "µM"}]}, {"smiles": "CCOc1cc(C(C)NC(=O)c2ccc3c(c2)nc(-c2ccccn2)n3C2CCCCC2)ccc1OC", "note": "(centres unmarked) [Entry 2043]", "values": [{"measurement": "IC50", "setting": "IC50 μM, Table 2", "value": "5 to 10", "unit": "µM"}]}, {"smiles": "COc1cc(CNC(=O)c2ccc3c(c2)nc(-c2ccccn2)n3C2CCCCC2)ccc1O", "note": "[Entry 2057]", "values": [{"measurement": "IC50", "setting": "IC50 μM, Table 2", "value": "5 to 10", "unit": "µM"}]}, {"smiles": "O=C(N[C@@H](Cc1c[nH]c2ccc(O)cc12)C(=O)O)c1ccc2c(c1)nc(-c1cnccn1)n2C1CCCCC1", "note": "[Entry 2112]", "values": [{"measurement": "IC50", "setting": "IC50 μM, Table 2", "value": "< 1", "unit": "µM"}]}, {"smiles": "Nc1ccc(-c2nc3cc(C(=O)N[C@@H](Cc4c[nH]c5ccc(O)cc45)C(=O)O)ccc3n2C2CCCCC2)cn1", "note": "[Entry 2114]", "values": [{"measurement": "IC50", "setting": "IC50 μM, Table 2", "value": "1 to 5", "unit": "µM"}]}, {"smiles": "COc1ccc(C(NC(=O)c2ccc3c(c2)nc(C2CCCCC2)n3C2CCCCC2)C(=O)O)cc1OC", "note": "(centres unmarked) [Entry 2027]", "values": [{"measurement": "IC50", "setting": "IC50 μM, Table 2", "value": "10 to 25", "unit": "µM"}]}, {"smiles": "COc1ccc(CNC(=O)c2ccc3c(c2)nc(-c2ccccn2)n3[C@H]2CCCC[C@@H]2O)cc1OC", "note": "[Entry 8001]", "values": [{"measurement": "IC50", "setting": "IC50 μM, Table 8", "value": "10 to 25", "unit": "µM"}]}, {"smiles": "COc1ccc(C(NC(=O)c2ccc3c(c2)nc(-c2ccoc2)n3C2CCCCC2)C(=O)O)cc1", "note": "(centres unmarked) [Entry 1014]", "values": [{"measurement": "IC50", "setting": "[1]", "value": "1 to 5", "unit": "µM"}]}, {"smiles": "O=C(O)CNC(=O)N1CCCC(NC(=O)c2ccc3c(c2)nc(-c2ccoc2)n3C2CCCCC2)C1", "note": "(centres unmarked) [Entry 1194]", "values": [{"measurement": "IC50", "setting": "[1]", "value": "10 to 25", "unit": "µM"}]}, {"smiles": "COc1cccc(-c2nc3cc(C(=O)N[C@@H](Cc4c[nH]c5ccc(O)cc45)C(=O)O)ccc3n2C2CCCCC2)c1O", "note": "[Entry 2105]", "values": [{"measurement": "IC50", "setting": "IC50 μM, Table 2", "value": "1 to 5", "unit": "µM"}]}, {"smiles": "O=C(N[C@@H](Cc1c[nH]c2ccc(O)cc12)C(=O)O)c1ccc2c(c1)nc(-c1ccc3c(c1)OCO3)n2C1CCCCC1", "note": "[Entry 12004]", "values": [{"measurement": "IC50", "setting": "IC50, Table 12", "value": "< 1", "unit": "µM"}]}, {"smiles": "CC(=O)Nc1nc([C@H](Cc2c[nH]c3ccc(O)cc23)NC(=O)c2ccc3c(c2)nc(-c2ccoc2)n3C2CCCCC2)cs1", "note": "[Entry 14006, 1-Cyclohexyl-2-furan-3-yl-1H-benzimidazole-5-carboxylic Acid [(S)-1-(2-Acetylamino-thiazol-4-yl)-2-(5-hydroxy-1H-indol-3-yl)-ethyl]-amide]", "values": [{"measurement": "IC50", "setting": "IC50, Table 14", "value": "< 1", "unit": "µM"}]}, {"smiles": "O=C(O)c1ccc2c(c1)nc(-c1nccs1)n2C1CCCCC1", "note": "[Entry 7015]", "values": [{"measurement": "IC50", "setting": "IC50 μM, Table 7", "value": "1 to 5", "unit": "µM"}]}, {"smiles": "O=C(N[C@@H](Cc1c[nH]c2ccc(O)cc12)c1cscn1)c1ccc2c(c1)nc(-c1ccoc1)n2C1CCCCC1", "note": "[Entry 14007, 1-Cyclohexyl-2-furan-3-yl-1H-benzimidazole-5-carboxylic Acid [(S)-2-(5-Hydroxy-1H-indol-3-yl)-1-thiazol-4-yl-ethyl]-amide]", "values": [{"measurement": "IC50", "setting": "IC50, Table 14", "value": "< 1", "unit": "µM"}]}, {"smiles": "O=C(N[C@@H](Cc1ccc(F)cc1)C(=O)O)c1ccc2c(c1)nc(-c1ccoc1)n2C1CCCCC1", "note": "[Entry 1020]", "values": [{"measurement": "IC50", "setting": "[1]", "value": "1 to 5", "unit": "µM"}]}, {"smiles": "O=C(N[C@H]1CC[C@H](n2c(=O)[nH]c3ccccc3c2=O)CC1)c1ccc2c(c1)nc(-c1ccoc1)n2C1CCCCC1", "note": "[Entry 1199]", "values": [{"measurement": "IC50", "setting": "[1]", "value": "10 to 25", "unit": "µM"}]}, {"smiles": "CC(C)=Cc1nc2cc(C(=O)O)ccc2n1C1CCCCC1", "note": "[Entry 7003]", "values": [{"measurement": "IC50", "setting": "IC50 μM, Table 7", "value": "10 to 25", "unit": "µM"}]}]}
